Experimental data from the supplement of paper PMC4604168 (melanoma cell lines).
The other results are listed elsewhere or left out. Single values are uncertain, as repeats are few or missing.
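Note: cell number obtained by counting DAPI-stained nuclei in high-throughput microscope images with image analysis software, screen run in 1,536-well plates.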

Each molecule was assayed on A2058 (assay: cell count relative to DMSO control; melanoma cells; higher = more viable cells). Details: library dose: low library concentration; 72 h.
COc1ccc(C2=N[C@@H](c3ccc(Cl)cc3)[C@@H](c3ccc(Cl)cc3)N2C(=O)N2CCNC(=O)C2)c(OC(C)C)c1 [Nutlin-3] + C/C(O)=C(\C#N)C(=O)Nc1cc(Br)ccc1Br [LFM-A13] (first compound 0.1 µM, partner dose 2 µM) showed a cell count of 89.9%. CCCCCCCCCCCCCCCCCCOP(=O)([O-])OC1CC[N+](C)(C)CC1 [Perifosine] + O=C(Oc1ccc([N+](=O)[O-])cc1)N1CCC(C(O)(c2ccc3c(c2)OCO3)c2ccc3c(c2)OCO3)CC1 [JZL184] (first compound 0.4 µM, partner dose 1 µM) showed a cell count of 105%. CCN(CC)CCNC(=O)c1c(C)[nH]c(/C=C2\C(=O)Nc3ccc(F)cc32)c1C [sunitinib] + Cc1cc(SCc2sc(-c3ccc(C(F)(F)F)c(F)c3)nc2C)ccc1OCC(=O)O [GW0742] (first compound 0.4 µM, partner dose 2 µM) gave a cell count of 109%. Nc1nc(F)nc2c1ncn2[C@@H]1O[C@H](CO)[C@@H](O)[C@@H]1O [fludarabine] + C/C(O)=C(\C#N)C(=O)Nc1cc(Br)ccc1Br [LFM-A13] (first compound 0.2 µM, partner dose 2 µM) showed a cell count of 85.2%. Molecule Cc1cc(Nc2cc(N3CCN(C)CC3)nc(/C=C/c3ccccc3)n2)n[nH]1 + C/C(O)=C(\C#N)C(=O)Nc1cc(Br)ccc1Br [LFM-A13] (first compound 0.04 µM, partner dose 2 µM) has a cell count of 88.6%. Work on NC1(c2ccc(-c3nc4ccn5c(=O)[nH]nc5c4cc3-c3ccccc3)cc2)CCC1 + Cc1cc(SCc2sc(-c3ccc(C(F)(F)F)c(F)c3)nc2C)ccc1OCC(=O)O [GW0742] (first compound 0.4 µM, partner dose 2 µM) yielded a cell count of 94%.
